Measured values from publication PMC4336329 (PLoS ONE, 2015).
Hit rate of the full screen: of about 310,000 compounds, about 14,000 (4.5%) showed an effect of 50% or more. Effects have a minus sign here. This is one part of the list.

molecular target: human ether-à-go-go-related gene (hERG) potassium channel (human, UniProt Q12809); assay: primary screen, population patch clamp on CHO cells stably expressing hERG
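Note: peak tail current of the secondary pulse compared with the same well before compound.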

Chain of human ether-à-go-go-related gene (hERG) potassium channel (Q12809 whole entry, looked up): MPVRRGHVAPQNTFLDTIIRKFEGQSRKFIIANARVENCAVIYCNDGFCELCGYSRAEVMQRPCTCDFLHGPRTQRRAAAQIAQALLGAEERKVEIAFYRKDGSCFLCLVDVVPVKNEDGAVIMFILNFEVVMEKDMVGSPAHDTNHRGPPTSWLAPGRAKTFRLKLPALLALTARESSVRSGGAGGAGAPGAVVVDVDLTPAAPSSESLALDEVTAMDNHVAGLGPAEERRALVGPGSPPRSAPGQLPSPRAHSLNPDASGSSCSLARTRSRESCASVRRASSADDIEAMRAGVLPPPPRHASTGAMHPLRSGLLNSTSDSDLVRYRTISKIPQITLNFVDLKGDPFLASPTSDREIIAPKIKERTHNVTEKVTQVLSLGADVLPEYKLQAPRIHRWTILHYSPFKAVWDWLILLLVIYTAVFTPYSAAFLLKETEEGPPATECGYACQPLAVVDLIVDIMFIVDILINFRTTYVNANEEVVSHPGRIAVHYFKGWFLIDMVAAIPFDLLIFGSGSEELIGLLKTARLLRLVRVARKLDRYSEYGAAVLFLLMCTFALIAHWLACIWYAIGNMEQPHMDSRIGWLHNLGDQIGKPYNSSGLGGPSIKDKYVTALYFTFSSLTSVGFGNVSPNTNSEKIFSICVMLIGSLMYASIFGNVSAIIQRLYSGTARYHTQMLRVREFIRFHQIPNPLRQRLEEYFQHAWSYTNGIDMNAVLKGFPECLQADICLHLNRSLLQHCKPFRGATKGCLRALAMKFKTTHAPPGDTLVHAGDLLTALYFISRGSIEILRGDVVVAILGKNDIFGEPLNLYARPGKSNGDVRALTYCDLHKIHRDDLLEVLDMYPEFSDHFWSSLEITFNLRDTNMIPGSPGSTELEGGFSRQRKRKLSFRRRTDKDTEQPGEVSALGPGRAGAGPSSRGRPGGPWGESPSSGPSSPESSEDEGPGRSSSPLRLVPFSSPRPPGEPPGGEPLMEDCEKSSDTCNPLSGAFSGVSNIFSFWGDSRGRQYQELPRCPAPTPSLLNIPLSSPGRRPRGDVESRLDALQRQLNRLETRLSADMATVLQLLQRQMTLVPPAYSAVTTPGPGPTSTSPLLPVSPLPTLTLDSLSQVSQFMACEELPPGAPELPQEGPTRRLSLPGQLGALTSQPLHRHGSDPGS

Structure (SMILES)	hERG current change (%, negative = inhibition) at 10uM [%]
CC(C)(C)c1ccc(OCCNC(=O)c2ncn[nH]2)cc1	-3.57
O=C(Nc1ccc(N2CCOCC2)cc1)C1CCCN(S(=O)(=O)c2cccc(C(F)(F)F)c2)C1 (centres unmarked)	15.5
Cc1ccc(S(=O)(=O)Nc2cc(C(F)(F)F)ccc2N2CCOCC2)c(C)c1	4.38
CC(C)Cc1nnc(NC(=O)c2cc(S(=O)(=O)N(C)C)ccc2N2CCCC2)s1	-22.6
CCOC(=O)c1c(COC(=O)c2ccco2)nc2ccccc2[n+]1[O-]	-16.6
Cc1ccccc1SCC(=O)Nc1cc(C(F)(F)F)ccc1N1CCOCC1	-1.77
Cc1ccc2cc(CN(C(=O)c3ccncc3)C(C)C)c(=O)[nH]c2c1	-10.4
CC(Cc1ccccn1)NC(=O)CCc1nnc(C2CCCCC2)o1 (centres unmarked)	11.6
Cc1oc(-c2ccccc2)cc1C(=O)Nc1cccc(/C=C\C(=O)O)c1	17.1
CCOc1cccc(CN2CCN(Cc3ccc(C)o3)C(CCO)C2)c1O (centres unmarked)	-13.1
CCOC(=O)C(C#N)c1ccccn1 (centres unmarked)	14.1
N=c1nc(N)nc2n1NC(c1ccc(F)cc1)=CS2	-24.1
Cc1sc2ccccc2[n+]1CC(=O)c1ccccc1.[Br-]	18.7
CC(C)(C)c1cn(-c2ccc(F)cc2)c(=S)[nH]1	-4.59
COC1=CC(=O)OC(/C=C/c2ccccc2)C1 (centres unmarked)	-1.02
CCOc1ccc(CN(C(=O)c2oc3ccccc3c2C)C2CCS(=O)(=O)C2)cc1 (centres unmarked)	-24.8
CC(=O)Oc1cc2cccc(OC(C)=O)c(=O)c2c(OC(C)=O)c1OC(C)=O	1.34
O=C(Nc1cccs1)OCCN1CCN(Cc2ccccc2)CCC1=O	-9.26
CCCCCCSc1ccc([C@H]2N[C@@](CC(C)C)(C(=O)OC)[C@H]3C(=O)N(C)C(=O)[C@@H]23)cc1.O=C(O)C(F)(F)F	-3.24
CCOc1ccc(C(CC(=O)O)NC(=O)c2ccco2)cc1 (centres unmarked)	11
O=[N+]([O-])c1ccc(S(=O)(=O)NCCCc2ccccc2)cc1	-64.6
CC(C)NC(=O)N1CC(c2ccccc2)C(c2ccc(Cl)cc2)=N1 (centres unmarked)	-8.49
CCCCCCCCCCCCN1C/C(=C\C(=O)OCC)c2ccccc2S1(=O)=O	11.3

Structure (SMILES)	hERG current change (%, negative = inhibition) at 10uM [%]
O=C(NCCN1CCCCC1)c1cc2ccccc2[nH]1	-33.9
Fc1cccc(Cl)c1CNc1ccc(N2CCCC2)cc1	16.7
COc1ccc(N2CCN(C(=O)c3ccc(OCC4CCCO4)cc3)CC2)cc1 (centres unmarked)	4.74
CC(C)(C)OCC1CO1 (centres unmarked)	20.2
Cc1cccc(NC(=O)NNC(=O)c2ccc3ccccc3c2O)c1	18.9
Cc1ccc(C)c(Cn2cnc3c(nnn3-c3ccc(F)cc3)c2=O)c1	-2.53
CCNC(=S)NNC(=O)c1cc(-c2ccc(OC)cc2)nc2ccccc12	-1.11
Cc1ccc(-n2cc(CNCC3CC(=O)N(C4CC4)C3)c(-c3cccc(C)c3)n2)cc1 (centres unmarked)	-71.9
COc1ccc(C2Nc3ccccc3NC3=C2C(=O)CC(C)(C)C3)cc1 (centres unmarked)	8.09
COc1ccccc1NC(=O)c1sc2ncn(Cc3ccc(C)cc3)c(=O)c2c1C	6.86
CC12CCC(C(=O)N(CSC(=S)N/N=C\c3ccccc3)C1=O)C2(C)C (centres unmarked)	12
O=C(O)CCNS(=O)(=O)c1cccc(Br)c1	5.19
COc1cc(/C=N/Nc2ccccn2)cc(OC)c1O	-12.6
CC(C)N1CCN(Cc2cn[nH]c2C2CCCCC2)CC1CCO (centres unmarked)	11.7
CCOc1ccc(NC(=S)NNC(=O)CC(C)O)cc1 (centres unmarked)	40.7
CC(=O)Nc1ccc(NC(=O)C(C)c2cccc(C(=O)c3ccccc3)c2)cc1 (centres unmarked)	21.4
Cc1nnc(NC(=O)CC(C)c2ccccc2)s1 (centres unmarked)	23.2
CCN(CC(=O)Nc1c(F)cccc1F)C(=O)CSc1ccc(F)cc1	-14.3
Cc1cc(OCC(=O)NCCCN2CCOCC2)cc(C)c1Cl	-3.75
C=CCn1c(SCC(=O)NCc2ccc3c(c2)OCO3)nnc1-c1cccnc1	-0.64
COc1ccc(CNC(=O)c2c([S-])n(-c3ccc(C)cc3)c3cccc[n+]23)cc1	3.45
CC(=O)c1cccc(CN2CCN(C3CCCCC3)C(CCO)C2)c1 (centres unmarked)	-15.9
C=CCNc1nc(NCCO)nc(N2CCCC2)n1	-4.67

Structure (SMILES)	hERG current change (%, negative = inhibition) at 10uM [%]
COc1ccccc1C(=O)NCCC(=O)N(C)CC(=O)Nc1ccc(N2CCOCC2)cc1	-26.7
CCN(CC(=O)NC1CCS(=O)(=O)C1)S(=O)(=O)c1ccc2ccccc2c1 (centres unmarked)	-13.7
CC(C)(C)NC(=O)C(c1ccccn1)N(C(=O)C1CSC(=O)C1)c1ccc(F)cc1 (centres unmarked)	6.26
CNC(=O)Nc1ccc(C(O)(C(=O)OC)C(F)(F)F)cc1 (centres unmarked)	15.9
CN(C)c1ccc(CN2CCCCCC2)cc1	-6.11
CN(c1cccc(NC(=O)Nc2cccc(Cl)c2)c1)S(C)(=O)=O	-11.7
CCCC1=C(C(=O)OCC)C(c2ccc(N(C)C)cc2)n2ncnc2N1 (centres unmarked)	-15
Cc1cccc(C(=O)Nc2c(C#N)c(C)c(C)n2Cc2ccccc2)c1	12.2
O=C(CCCc1c[nH]c2ccccc12)NCCc1c[nH]c2ccccc12	-4.33
CC1CN(C(=O)c2ccn(C)n2)CC(C)O1 (centres unmarked)	5.85
Cc1cc(Cl)ccc1C(=O)C1CCCN(C(=O)/C=C/c2cnn(C)c2)C1 (centres unmarked)	-10.7
COc1cccc(C(=O)NCC(=O)OCC(=O)c2ccccc2)c1	2.59
CC(C)CCNC(=O)c1ccc2c(SCC(=O)O)c3c(nc2c1)CCCC3	-2.6
CCn1c(/C=C/c2c(C)n(CC)c3ccccc23)nc2ccccc2c1=O	-19.7
CCOc1ccccc1N(C(=O)c1snc(C(N)=O)c1N)C(C(=O)NCCC(C)C)c1ccco1 (centres unmarked)	-22.2
COC(=O)NC(=C(Cl)Cl)P(=O)(c1ccccc1)c1ccccc1	15.5
CN(CCc1nnc(N)s1)[N+](=O)[O-]	16.6
NC(=O)CC(NC(=O)c1ccc(Br)cc1)c1ccc(N2CCCCCCC2)c([N+](=O)[O-])c1 (centres unmarked)	-8.88
Cc1ccc(NC(=O)c2ccccc2OCc2c(C)noc2C)cc1S(=O)(=O)N(C)C	-0.589
N#Cc1sc2nc(-c3cccs3)cc(-c3ccccc3)c2c1N	10.3
COc1ccc(C)cc1NC(=O)CSc1nnc(COc2ccc(Cl)cc2)n1Cc1ccco1	4.62
CC(C)N1CC=C2C(C#N)=C(N)C(C#N)(C#N)C(c3ccccc3)C2C1 (centres unmarked)	-10.1
COc1ccc(-c2cc(C)no2)cc1S(=O)(=O)NCCCN(C)Cc1ccccc1	-29.9

Structure (SMILES)	hERG current change (%, negative = inhibition) at 10uM [%]
C(=C\c1nc(N2CCCCCC2)c2ccccc2n1)/c1ccccc1	-21.8
Cn1c(-c2ccccc2)cc2ccccc21	9.39
O=C(c1ccsc1)N1CCCC(N2CCN(c3cccc(Cl)c3)CC2)C1 (centres unmarked)	-47.1
O=c1c2c3c(sc2nc2n1CCCCC2)CCCCC3	-15
CCCNC(=O)CCc1c(C)nc2c(c(C)nn2-c2ccc(C)cc2)c1C	-0.266
Cc1cc(/C=C\c2nc(O)c([N+](=O)[O-])c(=O)[nH]2)c(C)n1-c1ccccc1	17.1
COc1ccc(NC(=O)CCOc2ccccc2)cc1	0.896
COc1ccc(/C=C/c2nc(N)nc(-c3ccccc3O)n2)cc1	-4.43
Cc1ccc(C)c(-n2c(SCC(N)=O)nnc2-c2ccccn2)c1	17.2
Cc1cccc(OCC(=O)Nc2ccc(N3CCN(C(=O)c4ccccc4)CC3)cc2)c1C	3.45
CC(C)(C)c1ccc(C(=O)N2CCN(S(=O)(=O)c3ccc(Br)s3)CC2)cc1	1.21
O=C(Nc1cccc(OCC(=O)N2CCOCC2)c1)c1cccc([N+](=O)[O-])c1	25.9
COc1cccc(OCc2cc(/C=N/n3cncn3)ccc2OC)c1	7.82
CC1(C)N=C(N)N=C(N)N1c1cccc(CN)c1.CCS(=O)(=O)O	20.6
O=C1NC(=S)S/C1=C\c1coc2ccccc2c1=O	5.99
CCN1C(=NCCc2cccnc2)N[C@@H](c2ccccc2)[C@H](C(=O)OC)[C@H]1C	1.69
O=C(O)CSc1nc2ccccc2nc1Cc1ccccc1F	17
COc1ccc(-c2n[nH]c(=S)n2-c2ccccc2C)cc1OC	7.74
O=C(c1ccc(Br)o1)N1CCN(c2ncccn2)CC1	0.956
COc1ccc(NC(=O)c2cccc(NC3=NC4CS(=O)(=O)CC4S3)c2)cc1Cl (centres unmarked)	8.42
